From article PMC5700166
Only a part is listed here, and it is no random draw. The list includes weakly bound sequences.

What was measured:
Experiment in all cases: protein-binding microarray (PBM)
Conditions in all cases: PBM: ~300 nM protein, 6 mM HEPES pH 7.8, 80 mM KCl, 0.5 mM EDTA, 0.5 mM EGTA, 6% glycerol, 35 ng/ul poly-dIdC, 1% milk, 1 h, room temperature; Ap Aiptasia and Nv Nematostella (sea anemones) / Co Capsaspora / Aq Amphimedon (sponge) / Dm Drosophila / Hu human; RHD is the Rel homology domain; high values mean tight binding; most listed sequences are background and not binding sites; double strand, one strand shown
GST-Ap-NF-kB RHD = biological target: T1, GST-Ap-NF-kB RHD (UniProt A0A913YAJ5)
T1 sequence: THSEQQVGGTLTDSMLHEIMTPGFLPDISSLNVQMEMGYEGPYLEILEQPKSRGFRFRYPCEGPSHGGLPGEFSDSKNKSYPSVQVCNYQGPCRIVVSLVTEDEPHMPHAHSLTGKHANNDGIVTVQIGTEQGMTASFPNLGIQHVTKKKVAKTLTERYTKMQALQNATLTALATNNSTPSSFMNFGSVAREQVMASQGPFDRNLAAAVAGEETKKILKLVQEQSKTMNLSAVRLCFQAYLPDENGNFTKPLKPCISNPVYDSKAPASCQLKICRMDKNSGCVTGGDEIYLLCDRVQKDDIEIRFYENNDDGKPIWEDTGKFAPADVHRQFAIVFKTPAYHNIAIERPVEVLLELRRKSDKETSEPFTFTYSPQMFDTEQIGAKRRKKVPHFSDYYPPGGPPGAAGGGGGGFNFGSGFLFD

[1] = biological target: T2, GST-Nv-NF-kB (Cys allele) (UniProt E5G601)
T2 sequence: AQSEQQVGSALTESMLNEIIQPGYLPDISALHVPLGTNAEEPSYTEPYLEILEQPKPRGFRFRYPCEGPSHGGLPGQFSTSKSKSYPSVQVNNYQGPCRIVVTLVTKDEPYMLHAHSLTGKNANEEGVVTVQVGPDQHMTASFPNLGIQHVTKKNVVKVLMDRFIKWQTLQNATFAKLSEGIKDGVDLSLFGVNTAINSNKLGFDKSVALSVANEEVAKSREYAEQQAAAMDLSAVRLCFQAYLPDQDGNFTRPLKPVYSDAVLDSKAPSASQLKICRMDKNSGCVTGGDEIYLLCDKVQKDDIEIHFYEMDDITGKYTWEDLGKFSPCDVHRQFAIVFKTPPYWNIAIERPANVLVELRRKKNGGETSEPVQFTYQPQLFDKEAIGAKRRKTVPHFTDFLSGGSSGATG

GST-Co-NF-kB = biological target: T3, GST-Co-NF-kB (UniProt F1ARL5)
T3 sequence: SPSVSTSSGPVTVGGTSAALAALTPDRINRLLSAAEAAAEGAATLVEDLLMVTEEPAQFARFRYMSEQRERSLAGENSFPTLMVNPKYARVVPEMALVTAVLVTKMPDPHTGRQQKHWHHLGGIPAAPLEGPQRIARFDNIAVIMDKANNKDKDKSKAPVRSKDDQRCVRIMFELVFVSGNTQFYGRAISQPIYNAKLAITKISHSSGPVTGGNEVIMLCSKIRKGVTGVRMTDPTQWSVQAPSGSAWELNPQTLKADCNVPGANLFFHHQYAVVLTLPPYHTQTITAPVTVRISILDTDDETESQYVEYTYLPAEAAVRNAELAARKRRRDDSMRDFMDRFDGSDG

GST-Dm-Relish = biological target: T4, GST-Dm-Relish (UniProt Q94527)
T4 sequence: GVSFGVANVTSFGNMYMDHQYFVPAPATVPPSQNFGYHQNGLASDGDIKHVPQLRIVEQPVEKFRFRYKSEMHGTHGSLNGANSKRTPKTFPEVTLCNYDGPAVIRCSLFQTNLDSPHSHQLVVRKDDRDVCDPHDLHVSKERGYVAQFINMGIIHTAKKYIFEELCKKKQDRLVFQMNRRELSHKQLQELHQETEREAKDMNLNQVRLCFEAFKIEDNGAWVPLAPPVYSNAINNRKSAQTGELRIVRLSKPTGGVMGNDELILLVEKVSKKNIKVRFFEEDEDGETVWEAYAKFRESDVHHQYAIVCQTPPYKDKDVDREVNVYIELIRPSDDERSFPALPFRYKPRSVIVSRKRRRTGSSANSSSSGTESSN

GST-Aq-NF-kB = biological target: T5, GST-Aq-NF-kB (UniProt A9Y5G7)
T5 sequence: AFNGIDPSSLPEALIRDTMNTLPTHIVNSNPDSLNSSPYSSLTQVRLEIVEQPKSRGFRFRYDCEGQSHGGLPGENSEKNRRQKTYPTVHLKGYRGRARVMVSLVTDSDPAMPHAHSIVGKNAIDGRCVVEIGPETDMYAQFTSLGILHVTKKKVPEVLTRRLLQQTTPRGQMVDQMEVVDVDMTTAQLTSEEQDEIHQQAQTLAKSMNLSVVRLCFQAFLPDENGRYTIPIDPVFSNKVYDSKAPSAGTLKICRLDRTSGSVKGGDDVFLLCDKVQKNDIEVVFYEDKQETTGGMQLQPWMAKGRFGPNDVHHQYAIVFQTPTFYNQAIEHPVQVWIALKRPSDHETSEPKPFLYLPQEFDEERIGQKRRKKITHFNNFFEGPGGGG

Sequence | binding signal (GST-Ap-NF-kB RHD) [z-score] | binding signal [1] [z-score] | binding signal (GST-Co-NF-kB) [z-score] | binding signal (GST-Dm-Relish) [z-score] | binding signal (GST-Aq-NF-kB) [z-score]
CCGATTAACATCAGTGAGTTCTATGATGTTAATCGGGTCTTGATTCGCTTGACGCTGCTG | -0.324 | -0.399 | -0.125 | 0.0233 | -0.365
CCGATTAACATCAATAGAACGCTTGATGTTAATCGGGTCTTGATTCGCTTGACGCTGCTG | -0.708 | -0.594 | 0.386 | -1.18 | -0.766
CCGATTAACATCAGGAAAGTTCCTGATGTTAATCGGGTCTTGATTCGCTTGACGCTGCTG | -0.179 | 0.27 | -0.572 | 0.922 | 1.9
CCGATTAACATCACTGCTACGTATGATGTTAATCGGGTCTTGATTCGCTTGACGCTGCTG | -0.596 | -0.889 | -0.36 | -0.0597 | -0.21
CCGATTAACATCAAAGATTTTCCTGATGTTAATCGGGTCTTGATTCGCTTGACGCTGCTG | 0.0165 | 0.00981 | 0.598 | -0.0291 | 0.713
CCGATTAACATCAATCAGACGCATGATGTTAATCGGGTCTTGATTCGCTTGACGCTGCTG | 0.178 | -1.19 | -0.372 | -0.808 | -0.566
CCGATTAACATCATATACTAATCTGATGTTAATCGGGTCTTGATTCGCTTGACGCTGCTG | -0.23 | -0.0186 | 0.0844 | -0.498 | -0.431
CCGATTAACATCACGGAAAATTCTGATGTTAATCGGGTCTTGATTCGCTTGACGCTGCTG | 0.0473 | -0.0525 | 0.523 | -0.0744 | 1.15
CCGATTAACATCACTGTAAGCCTTGATGTTAATCGGGTCTTGATTCGCTTGACGCTGCTG | -0.219 | -1.04 | -0.587 | -0.365 | -0.44
CCGATTAACATCACAGAGAACCTTGATGTTAATCGGGTCTTGATTCGCTTGACGCTGCTG | 0.00903 | -0.152 | 0.148 | 0.503 | -0.204
CCGATTAACATCATAATTGAGCATGATGTTAATCGGGTCTTGATTCGCTTGACGCTGCTG | -0.201 | -0.261 | 0.116 | -0.446 | -0.249
CCGATTAACATCAACCAAGCTTGTGATGTTAATCGGGTCTTGATTCGCTTGACGCTGCTG | -0.699 | -0.451 | -0.117 | -0.603 | -0.699
CCGATTAACATCAGCTCGCGTATTGATGTTAATCGGGTCTTGATTCGCTTGACGCTGCTG | -0.119 | -0.493 | 0.152 | -0.448 | -0.535
CCGATTAACATCATCATAGTCTTTGATGTTAATCGGGTCTTGATTCGCTTGACGCTGCTG | -0.817 | 0.0931 | 0.0743 | -0.573 | -0.428
CCGATTAACATCATGTTTAGTTTTGATGTTAATCGGGTCTTGATTCGCTTGACGCTGCTG | -0.115 | 0.241 | 0.126 | -0.0142 | -0.393
CCGATTAACATCAACTGAGCTTGTGATGTTAATCGGGTCTTGATTCGCTTGACGCTGCTG | -0.449 | -0.15 | 0.12 | -0.0984 | -0.42
CCGATTAACATCAGCTGACTTCTTGATGTTAATCGGGTCTTGATTCGCTTGACGCTGCTG | -1 | -0.729 | -0.47 | -1.2 | -0.889
CCGATTAACATCAAGCTAATCTGTGATGTTAATCGGGTCTTGATTCGCTTGACGCTGCTG | -0.905 | -0.733 | -0.652 | -0.359 | -0.513
CCGATTAACATCAGTAATATTTATGATGTTAATCGGGTCTTGATTCGCTTGACGCTGCTG | -0.82 | 0.109 | -0.236 | 0.241 | -0.287
CCGATTAACATCAGGCCTTTAACTGATGTTAATCGGGTCTTGATTCGCTTGACGCTGCTG | -0.558 | -0.0759 | -1.07 | -0.0364 | -0.39
CCGATTAACATCATAACTTTGGCTGATGTTAATCGGGTCTTGATTCGCTTGACGCTGCTG | -0.501 | -0.906 | -0.23 | -0.443 | -0.544
CCGATTAACATCATCCATACTCTTGATGTTAATCGGGTCTTGATTCGCTTGACGCTGCTG | 0.159 | 0.315 | 0.284 | -0.337 | -0.31
CCGATTAACATCAAAATCATTCGTGATGTTAATCGGGTCTTGATTCGCTTGACGCTGCTG | -0.483 | -0.22 | -0.146 | 0.0836 | -0.335
CCGATTAACATCATTGTTATGCTTGATGTTAATCGGGTCTTGATTCGCTTGACGCTGCTG | -0.569 | -0.622 | 0.143 | -0.172 | -0.389
CCGATTAACATCATTCATTGACCTGATGTTAATCGGGTCTTGATTCGCTTGACGCTGCTG | -0.14 | -0.113 | 0.0275 | -0.347 | -0.428
